Results published in PubChem BioAssay AID1508624 (National Center for Advancing Translational Sciences (NCATS), 2021).
The whole screen tested about 48,000 compounds, of which about 120 (0.25%) were called active. Roughly 4% stayed inconclusive and do not appear here. The call rests on the fitted dose curve; in most records, active means well fitted activation curve with a large enough effect; inconclusive means small, poorly fitted or top-dose-only effect, or another doubt; inactive means no such curve, though single readings can be large or run the other way. This is one part of the list.

assay: Primary qHTS for Identification of Small Molecule Activators of Huntingtin-Antisense Promoter Activity; conditions: HEK293 HTT-AS promoter firefly luciferase reporter, 24 h; series mostly up to 57.5 µM; activity change, positive = activation: at the top concentration; further: nearly all actives have a fitted effect of over 55% in size
Method in brief: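 HEK293 cells carrying firefly luciferase reporters were seeded at 2,500 per well in Opti-MEM and cultured for 24 h. They were then treated with compounds at up to 57.5 uM final for 24 h at 37 degrees C before Dual-Glo luminescence readout.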

Activity change, positive = activation, inactive:
CCOc1ccc(CCNC(=O)C2CC(=O)N(CCc3ccc(OC)c(OC)c3)C2)cc1OCC (configuration not stated) -1.81%
CCOC(=O)c1c(NC(=O)COc2ccc(OC)cc2)sc(C(=O)N(CC)CC)c1C -58.1%
CCCCN(CC)CCNC(=O)c1nn(-c2ccc(OC)cc2)c(=O)c2c1c1ccccc1n2C 0.112%
N#C/C(=C\c1ccccc1)c1nc(-c2cc3c(ccc4ccccc43)oc2=O)cs1 -6.04%
COC(=O)/C=C(/C)N -0.792%
CCN(CC)c1ccc(NC(=O)C2CCCN(S(=O)(=O)c3ccc4c(c3)oc(=O)n4C)C2)c(C)c1 (configuration not stated) -35.8%
CCC(Sc1nc2n[nH]c(C)c2c(=N)n1-c1ccc(Br)cc1)C(=O)N(CC)CC (configuration not stated) -48.7%
COc1ccccc1CSc1nc2n(n1)C(c1ccccc1)C(C(=O)Nc1ccc(C)cc1)=C(C)N2 (configuration not stated) -26.4%
Cc1ccc(NC(=O)C2CCCN(S(=O)(=O)c3ccc(C)cc3)C2)cc1 (configuration not stated) -12.2%
CCOC(=O)c1c(S(=O)(=O)N2CCN(c3cc(Cl)ccc3C)CC2)c(C)n(C)c1C -23.5%
COc1ccc(NC(=O)Cn2ncc3c4ccccc4n(Cc4ccccc4)c3c2=O)cc1OC -0.703%
COc1ccccc1-c1ncnn1-c1sc2c(c1C#N)CCCCC2 21%
COc1cc(NS(=O)(=O)c2ccc3c(c2)OCC(C(=O)N2CCCC2)O3)cc(OC)c1 (configuration not stated) -51.8%
Cc1ccc(NC(=O)Cn2nc(-c3ccc(Cl)cc3)c3ccccc3c2=O)cc1 -9.28%
Cc1ccc(-c2onc(C)c2C)cc1S(=O)(=O)N1CCc2ccccc21 -62.4%
COC(=O)c1ccc(NC(=O)C(c2ccccc2)N2Cc3ccccc3C2=O)cc1 (configuration not stated) 12.6%
Cc1cccc(CCNC(=O)CCc2c(C)nc3c(-c4ccc(F)cc4)c(C)nn3c2C)c1 -7.23%
CN1CCN(c2ccc(-c3nc(-c4ccccc4)no3)cc2[N+](=O)[O-])CC1 -90.4%
Cc1nc(-c2ccc(Cl)cc2)sc1CCNC(=O)C(=O)Nc1ccccc1C#N -8.11%
COc1ccc(N2CCN(C(=O)c3cc4c(s3)-c3c(C)cccc3OC4)CC2)cc1 -4.06%
Cc1cc(C)cc(NC(=O)C2CCCN(c3nnc(-n4c(C)ccc4C)s3)C2)c1 (configuration not stated) -16.7%
CCCc1ccc(OC(=O)c2sc3ncn(Cc4cccc(F)c4)c(=O)c3c2C)cc1 -17% [at 11.5 µM, percent change from vehicle, -100% = no light]
COc1ccc(NC(=O)Cn2c(SCc3c(F)cccc3Cl)nc3ccncc32)cc1OC -4.75%
COCCn1c(SCC(=O)Nc2ccc(Br)cc2)nc2c([nH]c3ccccc32)c1=O -8.13%
CCCCN(C(=O)Nc1ccc(OCC)cc1)C1CCN(C(C)=O)CC1 0.17%
CSc1ncc2c(n1)-c1ccccc1N(Cc1ccccc1C)S2(=O)=O 23.3%
COc1ccc(-n2c(=O)c3c(c4cc(OC)ccc4n3C)n(Cc3c(F)cccc3Cl)c2=O)cc1 -3.73%
COc1cccc(CCNC(=O)c2cnc3sc(N4CCCC4)nn3c2=O)c1 -22.9%
Cc1cccc(-n2c3nc(=O)n(C)c(=O)c-3cc3c(C)nn(-c4ccccc4)c32)c1C -6.62%
COC1(C(F)(F)F)NC(=O)N(c2ccc(F)cc2)C1=O (configuration not stated) -6.93%
COc1ccc(Cl)cc1NC(=O)N1CCC2(CC1)Oc1ccccc1C(=O)N2Cc1ccc(F)cc1 -19.1%
CSc1nc2sc3c(c2c(=O)n1-c1ccc(C)cc1)CCCC3 -18%
CCOC(=O)c1cnn(-c2cccc(Cl)c2)c1C1CCN(C(=O)OC(C)(C)C)CC1 -2.95%
Cc1ccc(OCCSc2nc3ccc(NC(=O)COc4ccc(C)cc4)cc3s2)cc1 -7.85%
CCOC(=O)C1=C(CN(CC)Cc2ccccc2)NC(=O)NC1c1ccc(Cl)cc1 (configuration not stated) -30.5%
COc1ccc(NC(=O)N2CCC(n3c(C)nc4cccnc43)CC2)cc1OC 0.946%
Fc1ccc(NCc2nc3ccccc3n2CCOc2ccccc2Cl)cc1 -1.95%
CC1CCc2c(sc3nnn(CC(=O)Nc4ccccc4Cl)c(=O)c23)C1 (configuration not stated) -14.8%
CCCCNC(=O)c1ccc(-c2nc(CN3CCc4ccccc43)c(C)o2)cc1 -33%
COc1ccc(OC)c(S(=O)(=O)NCCc2sc(C)nc2C)c1 -10.5%
Cc1c(Cl)cccc1NC(=O)CCS(=O)(=O)c1cccc2nsnc12 -14.5%
Cc1cccc(COc2ccc(-c3cc(C(F)(F)F)n4nc(C)cc4n3)cc2)c1 -3.52%
Cc1ccc(Nc2c3c(nc4ccccc24)CCC3)cc1F -50.7%
Cc1ccc(CNC(=O)CCN2C(=O)C(C)Oc3ccc(C)cc32)cc1 (configuration not stated) -25.7%
CCc1ccc(-c2nc3cc(NC(=O)c4ccc(F)cc4)ccc3o2)cc1 -5.53%
COc1ccccc1N(CC(=O)NCCSc1ccccc1)S(=O)(=O)c1ccc(C)cc1 -35.3%
Cc1ccc(NC(=O)CCNS(=O)(=O)c2cccs2)cc1F 18.5%
COc1cccc(-c2nn(C)c3sc(C(=O)N4CCN(c5cccc(C(F)(F)F)c5)CC4)cc23)c1 -17.9%
Cc1cn2c(=O)cc(COC(=O)COc3ccc(F)cc3)nc2s1 -0.912%
CCOc1cc(C(=O)N2CC(=O)Nc3ccc(F)cc3C2c2ccccc2)cc(OCC)c1OCC (configuration not stated) 12.5%
CC(C)OCCCNC(=O)Cn1c(-c2cccs2)cc2cc(F)ccc21 -31.7%
COc1ccc(N2CCN(CCCNC(=O)c3sc4ncccc4c3-n3cccc3)CC2)cc1 -17.2%
COc1cc2nc(NCCc3ccc(Cl)cc3)n3nc(-c4ccccc4)nc3c2cc1OC -12.5%
COc1ccc(NC(=O)Cn2nc(C)c3c(C)n(-c4ccccc4)nc3c2=O)cc1OC 5.02%
CCN(C(=O)c1nn(C)c2c1CSc1ccccc1-2)c1cccc(C)c1 -6.44%
CCCCCCCCCCCCCCCC(=O)OC(C)C -1.32%
COc1cc(C(=O)OCc2cc(=O)n3ccsc3n2)cc(OC)c1OC -14.2%
CCOc1cc(-c2cc(C(=O)O)c3c(-c4ccccc4)[nH]nc3n2)ccc1O 12%
COc1ccc(S(=O)(=O)NCC(c2ccco2)S(=O)(=O)c2cccs2)cc1OC (configuration not stated) 5.72%
CCCn1cc(S(=O)(=O)c2ccc(OCC)cc2)c(=O)c2cc(C)ccc21 0%
CN(CC(=O)N(Cc1ccc(C2CCCCC2)cc1)c1ccc(C(=O)O)c(O)c1)S(=O)(=O)c1c(F)c(F)c(F)c(F)c1F 19.9%
CCCCC(=O)Nc1cc(-c2cn3cccnc3n2)ccc1C -9.62%
CCOc1ccc(-c2c(C)nn3c(C)c(C(=O)NC(C)c4ccccc4)cnc23)cc1OCC (configuration not stated) -23.9%
O=C(CCSCc1ccccc1Cl)NCCc1ccccc1 -3.61%
Cc1c(-c2cccc(NC(=O)Cc3ccccc3)c2)nc2ncccn12 1.73%
O=C(Cn1ccn(-c2ccc(F)c(F)c2)c(=O)c1=O)NCc1ccccc1 -2.32%
Cc1cc(C)c(NC(=O)c2cc(S(=O)(=O)N3CCCC3)cn2C)c(C)c1 -4.48%
Cc1ccc(OCCSc2nc3ccccc3n2CC(=O)N2CCOCC2)cc1C -16.4%
COc1cc(Cl)c(S(=O)(=O)N2CCN(c3c(C)cccc3C)CC2)cc1Cl -24.2%
COc1ccc(CNc2nc(-c3ccccc3)nn2C(=O)c2ccccc2OC)cc1 1.59%
CCOC(=O)c1cc2c(=O)n3ccccc3nc2n(CC2CCCO2)c1=NC(=O)c1ccc(OCC)cc1 (configuration not stated) -11.7%
CN(Cc1ccccc1)C(=O)c1c[nH]c2ccc(S(=O)(=O)Nc3ccccc3F)cc2c1=O -26.2%
Cc1cc(Sc2ccc(Cl)cc2)nc2ccccc12 23.8%
O=C(CSc1ccccc1)NCc1ccc2c(c1)CCN2C(=O)c1ccc(Cl)cc1 -11.6%
CC(C)(C)OC(=O)N1CCC(c2c(C(=O)NC3CCCCC3)cnn2-c2cccc(F)c2)CC1 12.2%
Cc1cccc(C(=O)Nc2cccc(C(=O)OCc3cc(=O)n4nc(C(C)C)sc4n3)c2)c1 11.6%
Cn1nnnc1SCCNCc1ccc(OCc2ccccc2Cl)cc1 -18.2%
CC(NC(=O)c1ccc(NC(=O)c2nsc3ccccc23)cc1)c1ccccc1 (configuration not stated) -53.9%
O=C(COc1ccccc1)NCc1ccc2c(c1)CCN2C(=O)c1ccccc1 -28.5%
Cc1ccc(C)c(Nc2nc(-c3ccccc3)c3cc(Br)ccc3n2)c1 -8.45%
COc1ccc(CCNC(=O)CCCCn2c(=O)c3ccccc3n(CC(=O)Nc3ccc(C)cc3C)c2=O)cc1OC -4.11%
O=C(COc1ccccc1)NCCc1csc(-c2cccc(F)c2)n1 -5.28%
CCN1C(=O)C(Cc2nc3ccccc3c(=O)n2-c2ccc(OC)cc2)c2cc(C)ccc21 (configuration not stated) -25.5%
N#Cc1cccc(NC(=O)Cn2nc(Cc3ccncc3)c3ccccc3c2=O)c1 -26.4%
Cc1nnc(N2CCCC(C(=O)Nc3cccc(C(F)(F)F)c3)C2)c2nn(-c3ccccc3)c(C)c12 (configuration not stated) -44.1%
O=C(Nc1cccc(Cl)c1)c1cc(-c2ccc3c(c2)OCCO3)on1 -32%
Cc1cccc(C(=O)Nc2cccc(OCc3cc(=O)n4cccc(C)c4n3)c2)c1 0.312%
Cc1cccc(N(C)C(CNS(=O)(=O)c2ccccc2)c2ccccc2)c1 (configuration not stated) -30.5%
CCN(CC)CCNC(=O)C(=O)NCC(c1cccnc1)N1CCN(c2ccccc2)CC1 (configuration not stated) -19.8%
O=C(O)CN1C(=O)c2cccc3cccc(c23)C1=O -0.109%
Cc1cccc(-n2c(SCc3nc(-c4ccccc4C)no3)nnc2-c2ccccc2)c1 -17.1%
FC(F)(F)C(Cl)Br (configuration not stated) 0.24%
CC(C)S(=O)(=O)c1oc(-c2ccc(F)cc2)nc1S(=O)(=O)c1ccccc1 -95.7%
CN1CCN(c2oc(/C=C/c3ccc(F)cc3)nc2C#N)CC1 -13.1%
CCOC(=O)c1ccccc1NS(=O)(=O)c1ccc(N2CCCCS2(=O)=O)cc1 -24.3%
COc1cc(NC(=O)c2nn(-c3ccc(C)cc3)c(=O)c3c2c2ccccc2n3C)cc(OC)c1OC 0.364%
CCc1nn(CC(=O)NC(C)CC)c(=O)c2cc3c(OC)cccc3n12 (configuration not stated) -5.28%
